According to the supplement of paper PMC3334620:
Whole data set: some 33,000 sequences, median “E-score (-0.5 to 0.5)” near -0.012, cut for the highest 2% near 0.29. The list shows a part of the results.

molecular target: T1, Ybr033w (UniProt P38073); experiment: PBM E-score (8-mer binding enrichment) (E-score (-0.5 to 0.5)); higher = stronger / more preferred TF binding; most listed sequences are background and not binding sites; conditions: protein concentration: 200 nM; construct: GST-full length
T1 sequence: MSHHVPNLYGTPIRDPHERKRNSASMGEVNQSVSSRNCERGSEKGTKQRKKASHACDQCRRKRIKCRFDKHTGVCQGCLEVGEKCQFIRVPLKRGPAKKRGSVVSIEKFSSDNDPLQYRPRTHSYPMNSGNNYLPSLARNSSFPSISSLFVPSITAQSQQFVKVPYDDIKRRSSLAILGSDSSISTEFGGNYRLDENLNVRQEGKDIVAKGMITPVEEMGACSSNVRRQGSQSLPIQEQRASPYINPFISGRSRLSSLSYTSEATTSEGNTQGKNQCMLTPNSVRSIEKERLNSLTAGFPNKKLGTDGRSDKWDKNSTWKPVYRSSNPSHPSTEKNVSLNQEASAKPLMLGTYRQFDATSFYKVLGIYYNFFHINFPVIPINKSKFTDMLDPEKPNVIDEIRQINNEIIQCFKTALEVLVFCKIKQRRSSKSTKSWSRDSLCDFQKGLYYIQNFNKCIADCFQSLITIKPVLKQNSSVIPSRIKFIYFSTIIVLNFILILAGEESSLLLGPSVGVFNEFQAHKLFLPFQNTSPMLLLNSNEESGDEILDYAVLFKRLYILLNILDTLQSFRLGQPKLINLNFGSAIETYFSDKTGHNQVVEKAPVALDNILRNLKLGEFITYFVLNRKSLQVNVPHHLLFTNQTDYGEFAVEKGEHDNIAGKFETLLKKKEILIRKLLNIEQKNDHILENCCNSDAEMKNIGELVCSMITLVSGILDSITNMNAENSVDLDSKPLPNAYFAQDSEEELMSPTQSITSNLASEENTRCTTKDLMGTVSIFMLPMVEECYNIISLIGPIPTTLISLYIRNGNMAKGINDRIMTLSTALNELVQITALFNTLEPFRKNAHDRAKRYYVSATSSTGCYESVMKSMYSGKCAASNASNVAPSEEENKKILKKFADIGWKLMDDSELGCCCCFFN
Method: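 Universal 'all 10-mer' protein binding microarrays (Agilent AMADID 015681) probed with GST-tagged S. cerevisiae TFs (full-length or DBD) made by in vitro transcription/translation (PURExpress), about 100-200 nM. Bound TF was detected with fluorescent anti-GST. Each ungapped 8-mer (which stands for itself and its reverse complement) is scored by the PBM enrichment score (E-score), a modified Wilcoxon-Mann-Whitney statistic from -0.5 to +0.5, computed with the Universal PBM Analysis Suite. Scale: above 0.35 generally sequence-specific binding.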

Sequence	PBM E-score
AGTATCAC	0.0458
ATGAGGAG	-0.192
AGAAGCCA	-0.0283
ATCGATGC	0.0782
CCCGTCAC	-0.221
AGCATACC	0.0272
CAGGCATC	0.00941
CCAAAAGC	-0.0545
AGGATTAT	0.306
ATCGAACC	-0.0406
ACAACTCG	-0.0646
ACAGTACC	-0.143
CGGATGGA	-0.0883
GCCTTATA	0.00805
AATGATCT	0.157
AATATGTG	0.269
CCTTATAA	0.147
CGTCAAAG	-0.0726
CGAAAACG	-0.0689
CATTCATC	0.0344
GTGTGGGA	0.0268
TCAGCGGA	0.0186
CATTTACC	0.125
AGCATGAG	-0.0716
CGTTTCAG	0.0643

Sequence	PBM E-score
CACAGTCA	-0.0243
ACGTACCC	-0.114
GCGCCAGC	-0.274
CAACCAGC	-0.122
ATCCCGGA	0.123
ACAGGGGG	-0.359
AAATGGAT	0.148
CGAGTATC	-0.0724
CCGGTTGA	-0.00715
ATTTCTCG	0.281
GGGGATTA	0.0655
TGCAAAAA	0.165
ATCGTGGC	-0.0454
AGGAGCGC	-0.0933
GGCTGATA	0.032
GAATTACC	0.139
GGCTGCCC	-0.25
GTACGGAC	-0.157
ACGAGCGG	-0.241
AGACGACC	-0.0861
AATTCTCA	0.204
AGCGACCT	-0.107
GCTAGTCC	-0.205
AAAGAAAG	0.0859
AATAGCAT	0.128

Sequence	PBM E-score
AGCTCTGA	-0.0863
GAAGTTCA	0.189
AACCGCGC	0.0308
ACTTTCGC	-0.0392
AACCAGGT	-0.174
AGGGCCGC	-0.374
GAAACAAA	0.222
CTAGCTAG	0.0853
CGATGCGA	0.0151
AGGTGGAG	-0.111
TGTACTAA	0.201
GCGACGCA	-0.0592
GCGTGGAC	-0.164
CGTGTCTA	0.0255
ACCATGGA	-0.0893
ACGCGAAC	-0.151
GAAATACA	0.14
GTGGTCAA	0.00743
CGAGATAC	0.0579
AGTGGGCA	-0.0199
AGTCCACC	-0.0107
CTCTGGGA	-0.229
AAGAAGAG	0.0947
GATCAATA	0.329
ATAATTCG	0.294

Sequence	PBM E-score
CAAGTAGC	-0.145
CGTCCACG	-0.133
AGCTTTTA	0.138
CGGGCTAC	-0.144
CTAACTGA	0.116
TATGAGAA	0.192
AGGAACAT	0.399
AGAAACTA	0.0869
CTCAGCTA	-0.0505
ACGTACCT	-0.0619
CCTCACGC	0.0249
CAATTCAC	0.175
TGAGCACA	-0.124
AATTCCGT	0.312
CCCCGACA	-0.282
ACGCATGA	0.00159
CGGTGCAA	-0.101
ACCAAGTC	0.139
CTCACCAG	-0.149
TGCCGCAA	0.0451
GCACAGGC	-0.136
CAGACGGC	-0.197
AGCAGGCG	-0.135
CGGGCCGC	-0.261
GACGTTGA	0.123

Sequence	PBM E-score
AACATTAG	0.126
TACAAAAA	0.145
CGTGACTC	-0.234
ATCAAAAA	0.27
GATATCCA	0.184
CGTCACAC	-0.107
CAGCAGGG	-0.292
CCCTCCAC	-0.0931
ACGGGTCC	-0.338
ACAACTGG	-0.0203
TTCTAGAA	0.102
ACATCTCA	0.181
ATTACCAG	0.0201
ATAAGACG	0.0366
TATCCTGA	0.167
ACCGCGCG	0.0302
TCGCTTAA	0.0307
AAAGTGTA	-0.0339
TTGAACAA	0.0558
AGACCGTA	-0.0802
CAAGGATC	0.0245
CCCGGCAG	-0.2
GACCTCGA	0.00169
ATCCGTGA	-0.00293
ATCTAAGG	0.00166

Sequence	PBM E-score
ACCTAACG	-0.069
ATGCGTGG	-0.346
ACTAGATC	-0.0476
AGGCCCGA	-0.162
ATTTATCA	0.246
TGATTGAA	0.117
CTCGTAAA	-0.0763
CATGTTTC	0.196
ACGAAAGA	0.209
CTCACTTA	0.0375
ATGACGCG	-0.0139
AACTGTCC	-0.158
CACGTGGA	0.0427
CGCCCTAG	-0.166
CACTTAGA	0.18
CGTTACAA	0.0792
GTAACAGA	0.206
GGAACGCA	-0.0877
ATAACGAG	0.0751
GGACTCAA	-0.217
GAGCGGCA	-0.185
CAAGCCCC	-0.292
ACTAGCTG	-0.053
AACCCAAA	0.115
ATATAAAT	0.34

Sequence	PBM E-score
CAGTGACA	-0.122
AGTTAGCG	0.137
CCCGCGAC	-0.221
CCATGCAC	-0.103
GGGGACCA	-0.228
AGTGTTCC	0.131
CACCGAGC	-0.0991
GGTATACC	-0.102
ACTTTTCC	0.246
TGTTGCAA	0.269
ATAGAGAG	-0.127
TATGAGCA	-0.0537
GAATTCGA	0.0547
CTTATGAC	0.0784
GCTGAGAA	-0.101
AGCATGTA	0.0159
CGTTATTC	0.175
CGATTATA	0.276
AGCGGTGG	-0.24
CAAGCTCA	-0.176
AAGTCCTC	-0.0668
AATCCTGT	0.276
